Residue numbers refer to the chain shown, from its start.
B1: huAb13v1-XW (conjugate)
heavy: EVQLQESGPGLVKPSETLSLTCAVTGYSITSGYSWHWIRQFPGNGLEWMGYIHSSGSTNYNPSLKSRISISRDTSKNQFFLKLSSVTAADTAVYYCAGYDDYFEYWGQGTTVTVSSASTKGPSVFPLAPSSKSTSGGTAALGCLVKDYFPEPVTVSWNSGALTSGVHTFPAVLQSSGLYSLSSVVTVPSSSLGTQTYICNVNHKPSNTKVDKKV[letters of human IgG1 Fc with changes omitted]
light: DIQMTQSPSSLSASVGDRVTITCKASQNVGFNVAWYQQKPGKSPKALIYSASYRYSGVPSRFSGSGSGTDFTLTISSLQPEDFAEYFCQQYNWYPFTFGQGTKLEIKRTVAAPSVFIFPPSDEQLKSGTASVVCLLNNFYPREAKVQWKVDNALQSGNSQESVTEQDSKDSTYSLSSTLTLSKADYEKHKVYACEVTHQGLSSPVTKSFNRGEC
B2: huAb13v1-KZ (conjugate)
heavy: EVQLQESGPGLVKPSETLSLTCAVTGYSITSGYSWHWIRQFPGNGLEWMGYIHSSGSTNYNPSLKSRISISRDTSKNQFFLKLSSVTAADTAVYYCAGYDDYFEYWGQGTTVTVSSASTKGPSVFPLAPSSKSTSGGTAALGCLVKDYFPEPVTVSWNSGALTSGVHTFPAVLQSSGLYSLSSVVTVPSSSLGTQTYICNVNHKPSNTKVDKKV[letters of human IgG1 Fc with changes omitted]
light: B1 light
B3: huAb3v2.5-WD (conjugate)
heavy: EVQLVQSGAEVKKPGSSVKVSCKASGYTFSSYWMHWVRQAPGQGLEWIGLIHPESGSTNYNEMFKNRATLTVDRSTSTAYMELSSLRSEDTAVYYCAGGGRLYFDYWGQGTTVTVSSASTKGPSVFPLAPSSKSTSGGTAALGCLVKDYFPEPVTVSWNSGALTSGVHTFPAVLQSSGLYSLSSVVTVPSSSLGTQTYICNVNHKPSNTKVDKKV[letters of human IgG1 Fc with changes omitted]
light: DIVMTQSPLSLPVTPGEPASISCRSSQSLVHSNRDTYLRWYLQKPGQSPQLLIYKVSNRFSGVPDRFSGSGSGTDFTLKISRVEAEDVGVYYCSQSTHVPYTFGGGTKVEIKRTVAAPSVFIFPPSDEQLKSGTASVVCLLNNFYPREAKVQWKVDNALQSGNSQESVTEQDSKDSTYSLSSTLTLSKADYEKHKVYACEVTHQGLSSPVTKSFNRGEC
B4: huAb3v2.5-LB (conjugate)
heavy: EVQLVQSGAEVKKPGSSVKVSCKASGYTFSSYWMHWVRQAPGQGLEWIGLIHPESGSTNYNEMFKNRATLTVDRSTSTAYMELSSLRSEDTAVYYCAGGGRLYFDYWGQGTTVTVSSASTKGPSVFPLAPSSKSTSGGTAALGCLVKDYFPEPVTVSWNSGALTSGVHTFPAVLQSSGLYSLSSVVTVPSSSLGTQTYICNVNHKPSNTKVDKKV[letters of human IgG1 Fc with changes omitted]
light: B3 light
B5: huAb3v2.5-ZT (conjugate)
heavy: EVQLVQSGAEVKKPGSSVKVSCKASGYTFSSYWMHWVRQAPGQGLEWIGLIHPESGSTNYNEMFKNRATLTVDRSTSTAYMELSSLRSEDTAVYYCAGGGRLYFDYWGQGTTVTVSSASTKGPSVFPLAPSSKSTSGGTAALGCLVKDYFPEPVTVSWNSGALTSGVHTFPAVLQSSGLYSLSSVVTVPSSSLGTQTYICNVNHKPSNTKVDKKV[letters of human IgG1 Fc with changes omitted]
light: B3 light
B6: huAb3v2.5-ZZ (conjugate)
heavy: EVQLVQSGAEVKKPGSSVKVSCKASGYTFSSYWMHWVRQAPGQGLEWIGLIHPESGSTNYNEMFKNRATLTVDRSTSTAYMELSSLRSEDTAVYYCAGGGRLYFDYWGQGTTVTVSSASTKGPSVFPLAPSSKSTSGGTAALGCLVKDYFPEPVTVSWNSGALTSGVHTFPAVLQSSGLYSLSSVVTVPSSSLGTQTYICNVNHKPSNTKVDKKV[letters of human IgG1 Fc with changes omitted]
light: B3 light
B7: huAb3v2.5-XW (conjugate)
heavy: EVQLVQSGAEVKKPGSSVKVSCKASGYTFSSYWMHWVRQAPGQGLEWIGLIHPESGSTNYNEMFKNRATLTVDRSTSTAYMELSSLRSEDTAVYYCAGGGRLYFDYWGQGTTVTVSSASTKGPSVFPLAPSSKSTSGGTAALGCLVKDYFPEPVTVSWNSGALTSGVHTFPAVLQSSGLYSLSSVVTVPSSSLGTQTYICNVNHKPSNTKVDKKV[letters of human IgG1 Fc with changes omitted]
light: B3 light
B8: huAb3v2.5-SE (conjugate)
heavy: EVQLVQSGAEVKKPGSSVKVSCKASGYTFSSYWMHWVRQAPGQGLEWIGLIHPESGSTNYNEMFKNRATLTVDRSTSTAYMELSSLRSEDTAVYYCAGGGRLYFDYWGQGTTVTVSSASTKGPSVFPLAPSSKSTSGGTAALGCLVKDYFPEPVTVSWNSGALTSGVHTFPAVLQSSGLYSLSSVVTVPSSSLGTQTYICNVNHKPSNTKVDKKV[letters of human IgG1 Fc with changes omitted]
light: B3 light
B9: huAb3v2.5-SR (conjugate)
heavy: EVQLVQSGAEVKKPGSSVKVSCKASGYTFSSYWMHWVRQAPGQGLEWIGLIHPESGSTNYNEMFKNRATLTVDRSTSTAYMELSSLRSEDTAVYYCAGGGRLYFDYWGQGTTVTVSSASTKGPSVFPLAPSSKSTSGGTAALGCLVKDYFPEPVTVSWNSGALTSGVHTFPAVLQSSGLYSLSSVVTVPSSSLGTQTYICNVNHKPSNTKVDKKV[letters of human IgG1 Fc with changes omitted]
light: B3 light
B10: huAb3v2.5-YG (conjugate)
heavy: EVQLVQSGAEVKKPGSSVKVSCKASGYTFSSYWMHWVRQAPGQGLEWIGLIHPESGSTNYNEMFKNRATLTVDRSTSTAYMELSSLRSEDTAVYYCAGGGRLYFDYWGQGTTVTVSSASTKGPSVFPLAPSSKSTSGGTAALGCLVKDYFPEPVTVSWNSGALTSGVHTFPAVLQSSGLYSLSSVVTVPSSSLGTQTYICNVNHKPSNTKVDKKV[letters of human IgG1 Fc with changes omitted]
light: B3 light
B11: huAb3v2.5-KZ (conjugate)
heavy: EVQLVQSGAEVKKPGSSVKVSCKASGYTFSSYWMHWVRQAPGQGLEWIGLIHPESGSTNYNEMFKNRATLTVDRSTSTAYMELSSLRSEDTAVYYCAGGGRLYFDYWGQGTTVTVSSASTKGPSVFPLAPSSKSTSGGTAALGCLVKDYFPEPVTVSWNSGALTSGVHTFPAVLQSSGLYSLSSVVTVPSSSLGTQTYICNVNHKPSNTKVDKKV[letters of human IgG1 Fc with changes omitted]
light: B3 light
B12: huAb3v2.6-AAA (conjugate)
heavy: EVQLVQSGAEVKKPGSSVKVSCKASGYTFSSYWMHWVRQAPGQGLEWIGLIHPESGSTNYNEMFKNRATLTVDRSTSTAYMELSSLRSEDTAVYYCAGGGRLYFDYWGQGTTVTVSSASTKGPSVFPLAPSSKSTSGGTAALGCLVKDYFPEPVTVSWNSGALTSGVHTFPAVLQSSGLYSLSSVVTVPSSSLGTQTYICNVNHKPSNTKVDKKV[letters of human IgG1 Fc with changes omitted]
light: B3 light with R34Q
B13: huAb3v2.6-WD (conjugate)
heavy: EVQLVQSGAEVKKPGSSVKVSCKASGYTFSSYWMHWVRQAPGQGLEWIGLIHPESGSTNYNEMFKNRATLTVDRSTSTAYMELSSLRSEDTAVYYCAGGGRLYFDYWGQGTTVTVSSASTKGPSVFPLAPSSKSTSGGTAALGCLVKDYFPEPVTVSWNSGALTSGVHTFPAVLQSSGLYSLSSVVTVPSSSLGTQTYICNVNHKPSNTKVDKKV[letters of human IgG1 Fc with changes omitted]
light: B3 light with R34Q
B14: huAb3v2.6-ZT (conjugate)
heavy: EVQLVQSGAEVKKPGSSVKVSCKASGYTFSSYWMHWVRQAPGQGLEWIGLIHPESGSTNYNEMFKNRATLTVDRSTSTAYMELSSLRSEDTAVYYCAGGGRLYFDYWGQGTTVTVSSASTKGPSVFPLAPSSKSTSGGTAALGCLVKDYFPEPVTVSWNSGALTSGVHTFPAVLQSSGLYSLSSVVTVPSSSLGTQTYICNVNHKPSNTKVDKKV[letters of human IgG1 Fc with changes omitted]
light: B3 light with R34Q
B15: huAb3v2.6-ZZ (conjugate)
heavy: EVQLVQSGAEVKKPGSSVKVSCKASGYTFSSYWMHWVRQAPGQGLEWIGLIHPESGSTNYNEMFKNRATLTVDRSTSTAYMELSSLRSEDTAVYYCAGGGRLYFDYWGQGTTVTVSSASTKGPSVFPLAPSSKSTSGGTAALGCLVKDYFPEPVTVSWNSGALTSGVHTFPAVLQSSGLYSLSSVVTVPSSSLGTQTYICNVNHKPSNTKVDKKV[letters of human IgG1 Fc with changes omitted]
light: B3 light with R34Q
B16: huAb3v2.6-XW (conjugate)
heavy: EVQLVQSGAEVKKPGSSVKVSCKASGYTFSSYWMHWVRQAPGQGLEWIGLIHPESGSTNYNEMFKNRATLTVDRSTSTAYMELSSLRSEDTAVYYCAGGGRLYFDYWGQGTTVTVSSASTKGPSVFPLAPSSKSTSGGTAALGCLVKDYFPEPVTVSWNSGALTSGVHTFPAVLQSSGLYSLSSVVTVPSSSLGTQTYICNVNHKPSNTKVDKKV[letters of human IgG1 Fc with changes omitted]
light: B3 light with R34Q
B17: huAb3v2.6-SE (conjugate)
heavy: EVQLVQSGAEVKKPGSSVKVSCKASGYTFSSYWMHWVRQAPGQGLEWIGLIHPESGSTNYNEMFKNRATLTVDRSTSTAYMELSSLRSEDTAVYYCAGGGRLYFDYWGQGTTVTVSSASTKGPSVFPLAPSSKSTSGGTAALGCLVKDYFPEPVTVSWNSGALTSGVHTFPAVLQSSGLYSLSSVVTVPSSSLGTQTYICNVNHKPSNTKVDKKV[letters of human IgG1 Fc with changes omitted]
light: B3 light with R34Q
B18: huAb3v2.6-SR (conjugate)
heavy: EVQLVQSGAEVKKPGSSVKVSCKASGYTFSSYWMHWVRQAPGQGLEWIGLIHPESGSTNYNEMFKNRATLTVDRSTSTAYMELSSLRSEDTAVYYCAGGGRLYFDYWGQGTTVTVSSASTKGPSVFPLAPSSKSTSGGTAALGCLVKDYFPEPVTVSWNSGALTSGVHTFPAVLQSSGLYSLSSVVTVPSSSLGTQTYICNVNHKPSNTKVDKKV[letters of human IgG1 Fc with changes omitted]
light: B3 light with R34Q
B19: huAb3v2.6-YG (conjugate)
heavy: EVQLVQSGAEVKKPGSSVKVSCKASGYTFSSYWMHWVRQAPGQGLEWIGLIHPESGSTNYNEMFKNRATLTVDRSTSTAYMELSSLRSEDTAVYYCAGGGRLYFDYWGQGTTVTVSSASTKGPSVFPLAPSSKSTSGGTAALGCLVKDYFPEPVTVSWNSGALTSGVHTFPAVLQSSGLYSLSSVVTVPSSSLGTQTYICNVNHKPSNTKVDKKV[letters of human IgG1 Fc with changes omitted]
light: B3 light with R34Q
B20: huAb3v2.6-KZ (conjugate)
heavy: EVQLVQSGAEVKKPGSSVKVSCKASGYTFSSYWMHWVRQAPGQGLEWIGLIHPESGSTNYNEMFKNRATLTVDRSTSTAYMELSSLRSEDTAVYYCAGGGRLYFDYWGQGTTVTVSSASTKGPSVFPLAPSSKSTSGGTAALGCLVKDYFPEPVTVSWNSGALTSGVHTFPAVLQSSGLYSLSSVVTVPSSSLGTQTYICNVNHKPSNTKVDKKV[letters of human IgG1 Fc with changes omitted]
light: B3 light with R34Q

Tested on: not listed separately
Assay: DAR of ADC by LC-MS
Details: ADC as conjugated (Method A, E or G)
Description: The DAR and percentage aggregation of ADCs synthesized were determined by LC-MS and size exclusion chromatography (SEC), respectively.
LC-MS analysis was performed using an Agilent 1100 HPLC system interfaced to an Agilent LC/MSD TOF 6220 ESI mass spectrometer. The ADC was reduced with 5 mM (final concentration) Bond-Breaker® TCEP solution (Thermo Scientific, Rockford, Ill.), loaded onto a Protein Microtrap (Michrom Bioresorces, Auburn, Calif.) desalting cartridge, and eluted with a gradient of 10% B to 75% B in 0.2 minutes at ambient temperature. Mobile phase A was H2O with 0.1% formic acid (FA), mobile phase B was acetonitrile with 0.1% FA, and the flow rate was 0.2 mL/min. Electrospray-ionization time-of-flight mass spectra of the co-eluting light and heavy chains were acquired using Agilent MassHunter™ acquisition software. The extracted intensity vs. m/z spectrum was deconvoluted using the Maximum Entropy feature of MassHunter software to determine the mass of each reduced antibody fragment. DAR was calculated from the deconvoluted spectrum by summing intensities of the naked and modified peaks for the light chain and heavy chain, normalized by multiplying intensity by the number of drugs attached. The summed, normalized intensities were divided by the sum of the intensities, and the summing results for two light chains and two heavy chains produced a final average DAR value for the full ADC.

Point of comparison: B1, “DAR by MS” value 4.3. Against it:
- B2 — lower, 2.8
- B3 — lower, 2.8
- B4 — lower, 2.2
- B5 — lower, 1.6
- B6 — lower, 1.2
- B7 — lower, 3.9
- B8 — lower, 3.7
- B9 — lower, 1.8
- B10 — lower, 4
- B11 — lower, 2.6
- B12 — lower, 1.9
- B13 — lower, 3.1
- B14 — lower, 1.7
- B15 — lower, 1.2
- B16 — lower, 4
- B17 — lower, 3.6
- B18 — lower, 2.5
- B19 — lower, 3.7
- B20 — lower, 3.5

Tested on: NCI-H146 cells
Assay: In vivo xenograft model of small cell lung cancer (NCI-H146)
Design: species or system mice
Details: Table 24; 6 mg/kg/IP/QDx1

Point of comparison: B1, “TGImax (%)” value 35%. Against it:
- B7 — higher, 51%
- B12 — higher, 47%
- B16 — higher, 43%

Tested on: not listed separately
Assay: Aggregation of conjugates by SEC
Format: physicochemical
Details: ADC as conjugated (Method A, E or G)

Point of comparison: B9, “% agg by SEC” value 48.5%. Against it:
- B1 — lower, 6.3%
- B2 — lower, 16.8%
- B3 — lower, 11.5%
- B4 — lower, 24.4%
- B5 — higher, 70.1%
- B6 — lower, 19.4%
- B7 — lower, 16.4%
- B8 — lower, 10.6%
- B10 — lower, 8.6%
- B11 — lower, 24.5%
- B12 — lower, 20.2%
- B13 — lower, 12.4%
- B14 — lower, 21.6%
- B15 — higher, 70.7%
- B16 — lower, 16.8%
- B17 — lower, 11.8%
- B18 — lower, 48.2%
- B19 — lower, 9.9%
- B20 — lower, 26.1%

From patent US10640563B2, “Anti-B7-H3 antibodies and antibody drug conjugates” (AbbVie Inc., priority 2016, dated 2020)
